Data taken from a compilation of properties of binary mixtures (doi:10.1039/c6ra15476j).
Some of these densities may be calculated back from excess volumes.

Experiment: xn = mol fraction of the nth substance listed
Settings: 100 kPa

CCCC[n+]1ccn(C)c1.F[P-](F)(F)(F)(F)F + CC(=O)c1ccccc1
x2 = 0
Settings	mass density [kg/m3]
293.15 K	1371.2
303.15 K	1362.8
323.15 K	1346
333.15 K	1337.8

CCOS(=O)(=O)[O-].CC[n+]1ccn(C)c1 + CC(=O)c1ccccc1
x2 = 0
Settings	mass density [kg/m3]
293.15 K	1238.2
303.15 K	1231.3
323.15 K	1217.7

CC[n+]1ccn(C)c1.F[B-](F)(F)F + CC(=O)c1ccccc1
x2 = 0
Settings	mass density [kg/m3]
303.15 K	1275
313.15 K	1267.4
323.15 K	1260
333.15 K	1252.5

CC(=O)c1ccccc1 + CCCC[n+]1ccn(C)c1.F[P-](F)(F)(F)(F)F
mass density [kg/m3]
Settings	293.15 K	303.15 K	313.15 K	323.15 K	333.15 K
x1 = 0.0504	1345.8	1337.1	1328.3	1319.6	1310.7
x1 = 0.0913	1329	1320.3	1311.5	–	–
x1 = 0.1983	1289.8	1281.1	1272.4	1263.6	1254.8
x1 = 0.2999	1256.9	–	1239.5	1230.7	–
x1 = 0.3908	1230.1	1221.4	1212.7	–	1195
x1 = 0.4973	1199.7	1191	–	1173.5	1164.6
x1 = 0.5999	–	1166.2	–	1148.7	1139.8
x1 = 0.697	1150	1141.3	1132.6	–	1114.9
x1 = 0.7999	1119.9	1111.2	1102.4	–	1084.8
x1 = 0.9002	1080.6	1071.9	1063.2	1054.4	–
x1 = 0.95	1055	1046.2	1037.5	–	1019.9
x1 = 1	1027.9	1019.2	1010.4	1001.7	–
